Experimental findings from ChEMBL document CHEMBL4888484, “Replenishing the malaria drug discovery pipeline: Screening and hit evaluation of the MMV Hit Generation Library 1 (HGL1) against asexual blood stage Plasmodium falciparum ,using a nano luciferase reporter read-out” (2022) are described below.

About 540 (0.36%) of roughly 150,000 compounds showed an effect of 50% or more. Some of the results follow.

For this assay, the system named is Plasmodium falciparum. In words: Primary screen in NF54 nanoGlo assay, in single point, at 2uM, 72h; a lower Z score goes with more inhibition. Format: functional, Erythrocyte. The settings on record: timepoint 72 hour.
In the case of `Cc1cccc(NC(=O)Nc2nnc3cccc(Cl)n23)c1`, the “% Inhibition” value is -15% and the Z score is 1.65.
On the same counts, the results for `CCCCOc1ccc(-c2nn(-c3ccccc3)cc2C=C(C(=O)Nc2cccc(C(F)(F)F)c2)C(=O)Nc2cccc(C(F)(F)F)c2)cc1` are -2% and 0.27.
The like results for `COCCn1ccnc1CN1C[C@@H]2NC(=O)CN(C)C(=O)c3ccc(C)c(c3)Oc3cccc(c3)CO[C@H]2C1` were, in that order, -1% and 0.14.
The like results for `CC(=O)c1nc2ccccc2n(CCOCCn2c(=O)c(C(C)=O)nc3ccccc32)c1=O` were, in that order, 1% and -0.15.
Take `Cc1nc2c(=O)[nH]nc(-c3ccco3)c2s1`: the “% Inhibition” value is given as -39% and the Z score was 4.57.
`O=C(NCc1cccnc1-n1ccnc1)c1ccc(Cl)cc1`: the “% Inhibition” value is given as -9% and the Z score is 1.16.
On the same counts, the results for `Cc1cccc(CNC(=O)c2c(C)noc2-c2ccc(C(C)(C)C)cc2)c1` are -16% and 2.14.
The like results for `C=C(C)CS(=O)(=O)Nc1ccc(C2CC(=O)NC(=O)C2)cc1` were, in that order, -13% and 1.53.
The like results for `COc1ccc(-c2cc(C(=O)N3C[C@H]4C[C@@H](C3)C3CCCC(=O)N3C4)[nH]n2)cc1OC` (some centres not stated) were, in that order, -7% and 0.95.
For `O=C1Cc2cc(/C=C/c3ccccc3)ccc2N1`, the “% Inhibition” value was determined as 2% and the Z score is listed as -0.36.
The like results for `Cc1nc(C)c(-c2cccc(C(=O)N[C@H]3CS(=O)(=O)C[C@@H]3O)c2)s1` were, in that order, -2% and 0.4.
The like results for `CCCc1nc(CN(C)c2nnnn2-c2ccccc2)no1` were, in that order, -17% and 3.25.
Regarding `CCCc1nnsc1C(=O)N1C2CCC1COC2`, the “% Inhibition” value is reported as -11% and the Z score was found to be 2.18.
Take `CC(C)(CC(N)=O)NC(=O)[C@@H]1CC=CCC1`: the “% Inhibition” value was -8% and the Z score was 0.83.
Take `N[C@H]1C[C@@H](c2cc(N3CC(OCc4ccccc4F)C3)ncn2)C1`: the “% Inhibition” value is given as 3% and the Z score is recorded as -0.53.
On the same counts, the results for `O=C(Cn1c(-c2ccccc2)nn(-c2ccc(Cl)cc2)c1=O)NCCF` are -4% and 0.54.
On the same counts, the results for `CCC(C)C(C)(O)CNC(=O)C(C)(C)S(=O)(=O)C1CC1` (configuration not stated) are -4% and 0.45.
On the same counts, the results for `Cc1noc(C)c1CCc1nnc(C2CCOCC2)o1` are -1% and 0.11.
With `Cc1cccc(C)c1Oc1ncccc1CNC(=O)c1cc(=O)[nH][nH]1`, the “% Inhibition” value was -2% and the Z score worked out at 0.32.
The like results for `O=C1Nc2cc(Cl)ccc2Oc2ccc(S(=O)(=O)N3CCc4ccccc4C3)cc21` were, in that order, 2% and -0.25.
The like results for `CCOc1cc(Cl)ccc1CNC(=O)Cc1cccnc1` were, in that order, -13% and 1.71.
The like results for `CCc1nnc(COc2ccc3c(c2)OC2(CCCCC2)CC3=O)o1` were, in that order, -14% and 1.75.
Take `O=C(CCCn1cccn1)N1CCCN(c2nc3ccccc3s2)CC1`: the “% Inhibition” value is reported as -11% and the Z score amounted to 1.12.
The like results for `CC(C)CN(CC(C)C)CN1C(=O)C(=O)c2cc3c(cc21)OCCO3` were, in that order, -5% and 0.91.
For `COC(=O)[C@@H](O)C(C)(C)NCc1ccon1`, the “% Inhibition” value is listed as -9% and the Z score amounted to 1.09.
On the same counts, the results for `CCC(C)CS(=O)(=O)NC(C)C1CC1` (configuration not stated) are -4% and 0.39.
The like results for `COC(C)c1nsc(N2CCCNC(=O)C2C)n1` (configuration not stated) were, in that order, 7% and -1.36.
On the same counts, the results for `CCn1ccnc1C(NC(=O)C1Cc2ccccc21)C1CCOCC1` (configuration not stated) are 2% and -0.3.
With `CCOCCn1nnc(Cc2ccccc2C)n1`, the “% Inhibition” value was -2% and the Z score is reported as 0.29.
The like results for `CCC(CC)n1nc(C(=O)Nc2c(C)nc(O)nc2O)cc1C` were, in that order, -10% and 1.81.
On the same counts, the results for `CCc1onc(C)c1NC(=O)N[C@H]1[C@@H]2COC[C@@H]21` are -10% and 0.85.
On the same counts, the results for `CCc1noc2nc(C)nc(N3CCC[C@H](C(=O)NCc4ccccc4F)C3)c12` are 0% and -0.02.
Turning to `O=S(=O)(Cc1csc(COc2ccc(Cl)cc2)n1)C1CCOCC1`, the “% Inhibition” value is given as -15% and the Z score was 2.85.
On the same counts, the results for `O=C1CC(C(=O)Nc2ccccc2C(=O)N2CCCCC2)C1` are -8% and 1.12.
The like results for `Cc1ccc(CN(CC(=O)N[C@](C)(C#N)C2CC2)C(C)C)s1` were, in that order, -5% and 0.6.
In the case of `CC(C)N(C)CCNC(=O)COC1CCCCC1`, the “% Inhibition” value is reported as -3% and the Z score is 0.51.
The like results for `O=C(Cn1cccn1)NCCCc1ccc(Br)cc1F` were, in that order, 1% and -0.12.
On the same counts, the results for `COc1cc(=O)c(C(=O)N2CCc3ccccc3C2)nn1-c1ccc(C)cc1` are 0% and -0.01.
On the same counts, the results for `COCCc1noc(-c2cn(Cc3ccc(F)cc3Cl)nn2)n1` are -14% and 1.88.
`O=C(c1cn2c(n1)COCC2)N1CCOC[C@@H]1CC1CC1`: the “% Inhibition” value was found to be 1% and the Z score is -0.19.
As for `CC(C)C[C@H](NC(=O)C(C)Cc1cnc[nH]1)C(=O)O` (some centres not stated), the “% Inhibition” value is recorded as -9% and the Z score is given as 1.15.
On the same counts, the results for `COCCN(Cc1c(C(C)C)nn(-c2ccccc2)c1Oc1cccc(F)c1)C(=O)c1cccc(F)c1` are -13% and 1.21.
The like results for `Cc1c(Cl)cccc1C(=O)N1CCC[C@H](CN2CCOCC2)C1` were, in that order, 2% and -0.39.
For `Cc1cc2nc(-c3cccc(NC(=O)c4cccc5ccccc45)c3C)oc2cc1C`, the “% Inhibition” value was -2% and the Z score turned out to be 0.26.
On the same counts, the results for `O=C(Cc1ccsc1)N1CC[C@@]2(CCCN(CC3CCC3)C2=O)C1` are -4% and 0.84.
For `CC1CCC(O)(CNC(C)C2CCCO2)CC1` (configuration not stated), the “% Inhibition” value was -15% and the Z score stood at 2.37.
On the same counts, the results for `Cc1cc(C(=O)NCC2(NC(=O)c3cc(C)oc3C)CCOCC2)c(C)o1` are 5% and -0.64.
On the same counts, the results for `O=C(NC1CCCC1)c1cn([C@H]2CCCN(Cc3ccc(OC(F)(F)F)cc3)C2)nn1` are -8% and 1.04.
As to `O=C1c2ccccc2C(=O)C1(O)c1c[nH]c2ccccc12`, the “% Inhibition” value is given as -11% and the Z score is reported as 1.7.
On the same counts, the results for `C=C(C)CNC(=O)NCC(=O)Nc1cc(Br)ccc1C` are 6% and -0.74.
On the same counts, the results for `CCCCn1nc(C2CC2)nc1CCN1CCN(C)CC1` are -7% and 1.39.
`COc1cc2ccccc2cc1C(=O)N1CC(=O)Nc2ccccc21`: the “% Inhibition” value stood at 1% and the Z score was -0.19.
Turning to `O=C(CCn1cnc2cc(-c3noc(-c4cncc(Br)c4)n3)ccc21)N1CCCCC1`, the “% Inhibition” value is -11% and the Z score was 1.38.
The like results for `Cc1cc(-c2cccc(C(=O)N(C)C[C@H]3CCCCN3C)c2)cc(C)c1O` were, in that order, -16% and 2.49.
The like results for `CCC(C)NC(=O)C1CC(C)N(Cc2nc(-c3ccc(Cl)cc3)no2)C2CCCCC12` (configuration not stated) were, in that order, -9% and 1.74.
On the same counts, the results for `Cc1cc(C)c(C(=O)N2CCC(CC(=O)NCc3ccc4c(c3)OCO4)CC2)[nH]1` are -13% and 1.14.
Turning to `COc1ccccc1C(=O)N1CCN(c2ccc(-c3nc(C)cs3)cn2)CC1`, the “% Inhibition” value was -9% and the Z score was determined as 1.68.
On the same counts, the results for `Cc1nc2ccccc2n1CCNCc1ccco1` are 12% and -1.35.
On the same counts, the results for `Cc1cc(Nc2cnn(C3CCCC3)c2C)nc(C)n1` are -16% and 1.79.
Consider `O=C(NC1CCCCC1)[C@H](O)[C@@H](O)C(=O)NC1CCCCC1`, for which the “% Inhibition” value was -8% and the Z score turned out to be 1.07.
On the same counts, the results for `O=C(CN1CCc2[nH]c3ccccc3c(=O)c2C1)NCc1ccc2c(c1)OCO2` are -11% and 1.46.
`CCNC(=O)N1CCN(c2nc3ccccc3c3nnc(-c4ccco4)n23)CC1`: the “% Inhibition” value is -2% and the Z score worked out at 0.37.
On the same counts, the results for `CCN1CC2(CCN(c3cnccn3)CC2)C[C@@H](c2ccccc2)C1=O` are -8% and 1.04.
For `CN(C)c1ccncc1CNCc1ccc(Cl)cc1Cl`, the “% Inhibition” value is given as 6% and the Z score is -0.88.
The like results for `O=C(O)C[C@H]1CCCN(c2nc(C3CC3)nc3[nH]ccc23)CC1` were, in that order, -1% and 0.13.
The like results for `C1CCC(CCc2nnc3n2CCOC3)CC1` were, in that order, -6% and 1.02.
On the same counts, the results for `COC(=O)C[C@H](NC(=O)Nc1ccc(F)cc1)C(=O)OC` are -9% and 1.2.
As for `O=C(Nc1ccc(F)cc1)C1=C(Nc2ccccc2)c2ccccc2S1(=O)=O`, the “% Inhibition” value turned out to be 2% and the Z score is -0.23.
With `CCc1csc(CCNC(=O)CCc2c(C)nc(O)nc2C)n1`, the “% Inhibition” value was 2% and the Z score is given as -0.51.
On to `CC(C)c1csc(CN(CCCn2ccnc2)Cc2cccnc2)n1`, for which the “% Inhibition” value is recorded as -1% and the Z score worked out at 0.08.
Turning to `CCOc1ncccc1-c1c[nH]c(C)n1`, the “% Inhibition” value was -11% and the Z score amounted to 2.06.
The like results for `CCOc1ccccc1NC(=O)c1cc2nccc(-c3ccc(F)cc3)n2n1` were, in that order, -1% and 0.09.
The like results for `Cc1nnc(CC(=O)Nc2ccc(O[C@@H]3CCCC[C@H]3O)cc2)o1` were, in that order, -11% and 1.68.
On the same counts, the results for `CCc1nn(C)c(=O)c2cc(S(=O)(=O)Nc3ccc(OC)cc3)cn12` are -10% and 1.33.
As for `COCCNC(=O)NC[C@@H](c1cccs1)N1CCC(C)CC1`, the “% Inhibition” value is reported as -6% and the Z score was found to be 0.97.
In the case of `Cc1nc2nc(CN(C)C[C@H]3CCCO3)cc(O)n2n1`, the “% Inhibition” value was -6% and the Z score is listed as 1.2.
The like results for `COc1cc(OC)nc(C(=O)N2CCCCc3cccnc32)n1` were, in that order, 6% and -0.77.
On the same counts, the results for `N#Cc1cccnc1N[C@H]1CCCN(CCCc2ccccc2)C1` are 6% and -0.89.
For `Cc1cc(C(=O)N(C)C2C(C)CN(Cc3ccccc3)CC2C)[nH]n1` (configuration not stated), the “% Inhibition” value is recorded as -6% and the Z score worked out at 0.68.
Take `CC1(C)NC(=O)N([C@@H]2COC3(CCC3)C2)C1=O`: the “% Inhibition” value is reported as -7% and the Z score was 1.36.
Take `Cn1nccc1[C@@H]1OCCC[C@H]1CNc1ncccc1C(=O)O`: the “% Inhibition” value was -12% and the Z score stood at 1.55.
On the same counts, the results for `Cc1cc(C)cc(-n2nc(C)cc2NC(=O)NCCn2ccnn2)c1` are -11% and 1.11.
Take `CCCCN(C)c1ccnc(C(=O)NCCN2C(=O)CCCC2=O)c1`: the “% Inhibition” value is given as -11% and the Z score is given as 1.44.
Take `O=C(c1ccnnc1)N1CCCCC[C@H]1c1ccccc1`: the “% Inhibition” value is -15% and the Z score is recorded as 1.75.
On the same counts, the results for `C[C@H]1c2ccsc2CCN1C(=O)c1ccc2c(c1)CCC(=O)N2` are -5% and 0.8.
The like results for `CCOc1nc2c(c(C)nn2-c2ccc(C)cc2)c(C)c1CCC(=O)NCc1ccc(F)cc1` were, in that order, -6% and 0.82.

Usually % Inhibition stands for the relative decrease from the control value, in per cent.
